From PubChem BioAssay (Tox21)
Inconclusive results are not listed. Unless noted, the call rests on the fitted dose curve; in most records, active means well fitted curve in the direction sought with a large enough effect in the repeat runs; inconclusive means weak or mixed curves; inactive means no such curve, though single readings can be large; an effect the other way counts as inactive or inconclusive. A structure can be active in one record and inactive in another. Certain results were filed several times, with different values. Only these are listed. An entry can have further records. Results that share an entry are repeated measurements in other runs, samples, wells, individuals or studies. A tag in brackets gives the origin of a value. The letters are not those of the source and start again with each entry.

What was measured:
[1] = qHTS assay for small molecules that induce genotoxicity in human embryonic kidney cells expressing luciferase-tagged ATAD5 - cell viability (AID 651634; calls by dose curve; further: nearly all actives have a fitted effect of over 25% in size)
Procedure, shortened: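 15.5 hr compound or vehicle exposure of HEK293T cells expressing luciferase-tagged ATAD5 at 37C; live-cell protease activity is read by fluorescence after 30 min of CellTiter-Fluor.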

[2] = qHTS assay to identify small molecule antagonists of the glucocorticoid receptor (GR) signaling pathway - cell viability counter screen (AID 720693); further: nearly all actives have a fitted effect of over 55% in size
[3] = qHTS assay to identify small molecule agonists of the constitutive androstane receptor (CAR) signaling pathway - cell viability counter screen (AID 1224836); further: nearly all actives have a fitted effect of over 45% in size
Procedure, shortened: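 Counter screen multiplexed with the CAR reporter readout: HepG2 cells co-transfected with hCAR and the CYP2B6-2.2kb construct receive a 15-concentration compound series and 0.75 uM PK11195 (final), then CellTiter-Fluor fluorescence is read after 23 h.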

[4] = qHTS assay to identify small molecule antagonists of the constitutive androstane receptor (CAR) signaling pathway - cell viability counter screen (AID 1224837); further: nearly all actives have a fitted effect of over 45% in size
Procedure, shortened: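 To flag cytotoxic false antagonists, HepG2 hCAR/CYP2B6-2.2kb cells were treated 23 hr with 15-concentration compound series and 50 nM CITCO at 37 C/5% CO2; CellTiter-Fluor fluorescence was the measured end point.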

[5] = A CellTox Green Cytotoxicity Assay to monitor cytotoxicity in HEK293 cells - 16 hour (AID 1224888); further: nearly all actives have a fitted effect of over 35% in size
Procedure, shortened: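 Tox21 screen in HEK293: membrane-impermeant cyanine dye fluoresces on binding dead-cell DNA; compound pinned 5 h post-seeding, plates held at 37 C, signal read repeatedly through 40 h.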

[6] = qHTS assay to identify small molecule antagonists of the peroxisome proliferator-activated receptor gamma (PPARg) signaling pathway - cell viability counter screen (AID 743194); further: nearly all actives have a fitted effect of over 55% in size
Procedure, shortened: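 Viability was measured as CellTiter-Glo luminescence in GeneBLAzer PPARg UAS-bla HEK293H cells. These cells had been exposed 17 h at 37 C to compounds together with rosiglitazone at 50 nM final, with the beta-lactamase readout taken in the same wells.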

[7] = target: Androgen receptor (Homo sapiens) (UniProt P10275); test: qHTS assay to identify small molecule agonists of the androgen receptor (AR) signaling pathway using the MDA cell line (AID 743040; further: nearly all actives have a fitted effect of over 20% in size)
[8] = qHTS assay to identify small molecule agonists of the sonic hedgehog signaling (Shh) pathway (AID 1259368; calls by dose curve; further: nearly all actives have a fitted effect of over 15% in size)
Procedure, shortened: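 Hedgehog pathway agonism scored by increased firefly luciferase luminescence in 3T3Gli1-Luc cells treated 24 hr at 37 C; detection used a 30 min room-temperature reagent incubation.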

[9] = qHTS assay to identify small molecule antagonists of the thyroid receptor (TR) signaling pathway (AID 743065); further: nearly all actives have a fitted effect of over 55% in size
Procedure, shortened: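 Antagonism measured as loss of luciferase signal in GH3 cells stably carrying a TRE-luciferase reporter, co-treated with compound and T3 (1 nM final) for 23.5 h at 37 C. Viability was read in the same well by CellTiter-Fluor.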
Potency means the concentration at half of the fitted maximal effect.

Chain of UniProt P10275 (P10275 whole entry, looked up): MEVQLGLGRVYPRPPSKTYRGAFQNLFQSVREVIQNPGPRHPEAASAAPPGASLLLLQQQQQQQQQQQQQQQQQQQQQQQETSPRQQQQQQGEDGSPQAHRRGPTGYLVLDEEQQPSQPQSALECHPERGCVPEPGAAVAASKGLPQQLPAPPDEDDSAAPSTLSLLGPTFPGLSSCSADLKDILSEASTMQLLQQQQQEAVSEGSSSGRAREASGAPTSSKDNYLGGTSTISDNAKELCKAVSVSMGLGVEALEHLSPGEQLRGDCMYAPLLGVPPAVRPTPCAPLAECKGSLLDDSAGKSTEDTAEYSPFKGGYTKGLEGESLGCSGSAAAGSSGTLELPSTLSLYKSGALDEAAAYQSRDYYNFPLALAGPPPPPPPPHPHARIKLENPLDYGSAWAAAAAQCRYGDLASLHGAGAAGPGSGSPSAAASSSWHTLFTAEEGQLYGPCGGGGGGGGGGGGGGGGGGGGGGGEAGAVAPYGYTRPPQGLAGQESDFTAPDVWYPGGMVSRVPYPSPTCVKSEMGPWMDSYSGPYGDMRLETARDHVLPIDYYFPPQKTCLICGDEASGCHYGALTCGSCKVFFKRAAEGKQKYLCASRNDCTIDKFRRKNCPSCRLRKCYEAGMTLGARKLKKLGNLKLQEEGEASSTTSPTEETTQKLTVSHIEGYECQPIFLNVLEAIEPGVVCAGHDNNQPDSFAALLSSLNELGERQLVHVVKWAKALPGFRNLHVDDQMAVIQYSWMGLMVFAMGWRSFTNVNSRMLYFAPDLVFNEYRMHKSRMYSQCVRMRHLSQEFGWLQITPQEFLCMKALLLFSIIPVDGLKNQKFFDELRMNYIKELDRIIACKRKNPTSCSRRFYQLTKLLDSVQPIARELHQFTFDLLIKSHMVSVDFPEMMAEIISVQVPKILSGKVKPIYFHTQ

SMILES: Oc1cc(Cl)ccc1Oc1ccc(Cl)cc1Cl
- Potency [1]: inactive [sample A] and active: 8.84 µM [sample B]
- Potency [2]: inactive [sample A] and active: 22.4 µM [sample B]
- Potency [3]: active: 49.7 µM [sample A] and inactive [sample B]
- Potency [4]: active: 55.8 µM [sample A] and inactive [sample B]
- Potency [5]: active: 22.4 µM [sample A] and inactive [sample B]

SMILES: O=c1oc2ccccc2c(O)c1C(CC(O)c1ccc(-c2ccc(Br)cc2)cc1)c1ccccc1 (stereo not drawn)
- Potency [6]: active: 32.8 µM [sample A] and inactive [sample B]

SMILES: Nc1ccc(Cl)cc1N
- Potency [7]: inactive [sample A] and active: 9.69 µM [sample B]
- Potency [8]: inactive [sample A] and active: 686 nM [sample B]

SMILES: CCCCCc1cc(O)cc(O)c1
- Potency [1]: inactive [sample A] and active: 54.5 µM [sample B]

SMILES: O=C1C=CC(=O)C=C1
- Potency [6]: inactive [sample A] and active: 43.6 µM [sample B]

SMILES: Brc1ccc(Oc2cc(Br)c(Br)cc2Br)c(Br)c1
- Potency [9]: inactive [sample A] and active: 43.6 µM [sample B]

SMILES: O=C(CCl)c1ccccc1
- Potency [9]: inactive [sample A] and active: 54.5 µM [sample B]

SMILES: CC(C)C(=O)OCC(C)(C)C(OC(=O)C(C)C)C(C)C (stereo not drawn)
- Potency [9]: active: 69.1 µM [sample A] and inactive [sample B]
